Assay results reported in a compilation of properties of binary mixtures (doi:10.1039/c7cp04078d).
The densities may have been worked out from excess volumes.

Test: xn = mol fraction of the nth substance listed
Conditions: 303.15 K, 100 kPa

SMILES	mass density (x2 = 0) [kg/m3]	mass density (x2 = 0.1) [kg/m3]	mass density (x2 = 0.2) [kg/m3]	mass density (x2 = 0.33) [kg/m3]	mass density (x2 = 0.5) [kg/m3]	mass density (x2 = 0.67) [kg/m3]	mass density (x2 = 0.8) [kg/m3]	mass density (x2 = 0.9) [kg/m3]
CC(=O)[O-].CCCC[N+](CCCC)(CCCC)CCCC + CC(=O)O	958	965	978	993	1017	1035	1042	1041
CC(=O)[O-].CCCC[N+](CCCC)(CCCC)CCCC + CCCCN	958	943	–	903	871	831	794	764
